Reference: patent US20240287108A1, “nSMASE2 INHIBITOR PRODRUGS WITH ENHANCED ORAL AND BRAIN EXPOSURES” (The Johns Hopkins University, priority 2021, published 2024)
Some of these results come from one statement about several compounds together.

What was measured:
Type in all cases: in vitro ADME
[1] = in vitro metabolic stability in mouse plasma (Example 1); conditions: 10 μM, 37° C.
Experimental: 1.2.1 In vitro metabolic stability assessment. In vitro metabolic stability assessment was performed using mouse plasma, and liver homogenates. For the liver homogenates, washed tissues were diluted 10-fold in 0.1 M potassium phosphate buffer and homogenized using a probe sonicator. To evaluate the stability of the intact prodrug over time, each of the tissue matrix were aliquoted to 1 mL and then spiked with 10 μM of corresponding prodrugs followed by incubation in an orbital shaker at 37° C. for 1 h (in triplicate). Sample from each incubation at predetermined time points (0 min, and 1 h) was quenched with three volumes of acetonitrile containing the internal standard (IS: losartan: 0.5 μm). Samples were vortex-mixed for 30 secs and centrifuged at 10,000 RPM for 10 min at 4° C. Disappearance of the intact compound was measured using liquid chromatography tandem mass spectrometry (LC-MS/MS). 1.2.2 In vivo pharmacokinetic studies in mice. Male CD-1 mice (n=3) were used to study the pharmacokinetic profiles of representive prodrug compounds. […] Blood and brain were collected after sacrificing the mice at predetermined time points. Plasma was harvested from blood by centrifugation at 3,000 RPM for 15 min and stored at −80° C. Brain tissues were harvested following blood collection and immediately snap frozen in liquid nitrogen and stored at −80° C. until LC-MS/MS analysis. […] Brain tissues were diluted 1:5 w/v with acetonitrile containing losartan (0.5 μm) and homogenized, followed by vortex-mixing and centrifugation at 10,000 RPM for 10 min at 4° C. A 50 μL aliquot of the supernatant was diluted with 50 μL of water and transferred to 250 μL polypropylene autosampler vials sealed with teflon caps. Then, 2 μL of the sample was injected into the LC-MS/MS system for analysis.

[2] = in vitro metabolic stability in mouse liver homogenates (Example 1); conditions: 10 μM, 37° C.
[3] = in vitro stability in CES1−/− mouse brain homogenates; conditions: CES1−/− mouse brain homogenate, 10 μM, 37° C.
Experimental: (§1) All synthesized prodrugs were next screened for in vitro stability in carboxylesterase 1 knockout (CES1^−/−) mouse plasma, as well as CES1^−/− mouse brain and liver homogenates (Table 2-1). We have previously reported that CES1^−/− mouse model recapitulates human prodrug metabolism.
(§2) For the tissue homogenates, washed tissues were diluted 10-fold in 0.1 M potassium phosphate buffer and homogenized using a probe sonicator. To evaluate the stability of the intact prodrug over time, each of the crude homogenates and plasma were aliquoted to 1 mL and then spiked with a final assay concentration of 10 μM of each prodrug followed by incubation in an orbital shaker at 37° C. for 1 h (in triplicate). Sample from each incubation at predetermined time points (0 min, and 1 h) was quenched with three volumes of acetonitrile containing the internal standard (IS; losartan: 0.5 μm). Samples were vortex-mixed for 30 secs and centrifuged at 10,000×g for 10 min at 4° C. Disappearance of intact prodrugs from these samples were performed on a Dionex ultra-high-performance LC system coupled with Q Exactive Focus orbitrap mass spectrometer (Thermo Fisher Scientific Inc., Waltham MA). […] Quantification of the prodrugs were performed in the full-scan mode (from m/z 50 to 1600) by comparing t=0 samples with t=60 min samples.

[4] = in vitro stability in CES1−/− mouse plasma; conditions: 10 μM, 37° C.
Experimental: as §1, with “metabolism. Tenora et al., 2019.” for “metabolism.”
as §2, with “Zimmermann et al., 2018. For” for “For”

[5] = in vitro stability in CES1−/− mouse liver homogenates; conditions: CES1−/− mouse liver homogenate, 10 μM, 37° C.
Experimental: as §1, §2

Row | Compound | intact prodrug remaining after 1 hour of incubation [1] | intact prodrug remaining after 1 hour of incubation [2] | Stability in mouse (% remaining at 1h) Mean + Std Error, Brain [3] | Stability in mouse (% remaining at 1h) Mean + Std Error, Plasma [4] | Stability in mouse (% remaining at 1h) Mean + Std Error, Liver [5]
1 | CCCCCC(=O)Oc1c(OC)cc(-c2nc(-c3ccccc3)c(-c3cccs3)[nH]2)cc1OC [Compound P2, 2,6-Dimethoxy-4-(4-phenyl-5-(thiophen-2-yl)-1H-imidazol-2-yl)phenyl hexanoate] | < 30% | < 25% |  |  | 
2 | COc1cc(-c2nc(-c3ccccc3)c(-c3cccs3)[nH]2)cc(OC)c1OC(C)=O [Compound P3, 2,6-Dimethoxy-4-(4-phenyl-5-(thiophen-2-yl)-1H-imidazol-2-yl)phenyl acetate] | < 30% | < 25% |  |  | 
3 | COc1cc(-c2nc(-c3ccccc3)c(-c3cccs3)[nH]2)cc(OC)c1OC(=O)C(C)(C)C [Compound P4, 2,6-Dimethoxy-4-(4-phenyl-5-(thiophen-2-yl)-1H-imidazol-2-yl)phenyl pivalate] | < 30% | < 25% | > 75% |  | 
4 | COc1cc(-c2nc(-c3ccccc3)c(-c3cccs3)[nH]2)cc(OC)c1OC(=O)OC(OC(=O)C(C)(C)C)c1ccccc1 (centres unmarked) [Compound P6, (((2,6-Dimethoxy-4-(4-phenyl-5-(thiophen-2-yl)-1H-imidazol-2-yl)phenoxy)carbonyl)oxy)(phenyl)methyl pivalate] | > 75% | > 75% |  |  | 
5 | CCC1CCCC(CC)N1C(=O)Oc1c(OC)cc(-c2nc(-c3ccccc3)c(-c3cccs3)[nH]2)cc1OC (centres unmarked) [Compound P10, 2,6-Dimethoxy-4-(5-phenyl-4-(thiophen-2-yl)-1H-imidazol-2-yl)phenyl 2,6-diethylpiperidine-1-carboxylate] |  |  |  | > 75% | > 50%
6 | COc1cc(-c2nc(-c3ccccc3)c(-c3cccs3)[nH]2)cc(OC)c1OC(=O)N1C2CCCC1CC2 [Compound P12, 2,6-Dimethoxy-4-(5-phenyl-4-(thiophen-2-yl)-1H-imidazol-2-yl)phenyl 8-azabicyclo[3.2.1]octane-8-carboxylate] |  |  |  | > 75% | 
7 | COc1cc(-c2nc(-c3ccccc3)c(-c3cccs3)[nH]2)cc(OC)c1OCOP(=O)(O)O [Compound P15, (2,6-Dimethoxy-4-(4-phenyl-5-(thiophen-2-yl)-1H-imidazol-2-yl)phenoxy) methyl dihydrogen phosphate] | > 75% | < 25% |  |  | < 25%
8 | COc1cc(-c2nc(-c3ccccc3)c(-c3cccs3)[nH]2)cc(OC)c1OCOP(=O)(O)OCOC(=O)OC(C)C [Compound P16, ((((2,6-Dimethoxy-4-(4-phenyl-5-(thiophen-2-yl)-1H-imidazol-2-yl)phenoxy)methoxy)(hydroxy)phosphoryl)oxy)methyl isopropyl carbonate] | > 75% | < 25% |  |  | 
